{
  "source": "paper PMC4336329",
  "about": "(PLoS ONE, 2015)",
  "note": "Hit rate of the full screen: of about 310,000 compounds, about 2,200 (0.71%) showed an effect of 50% or more. Effects have a minus sign here. This is one part of the list.",
  "data": [
    {"target": "human ether-à-go-go-related gene (hERG) potassium channel (human, UniProt Q12809)", "sequence (Q12809 whole entry, looked up)": "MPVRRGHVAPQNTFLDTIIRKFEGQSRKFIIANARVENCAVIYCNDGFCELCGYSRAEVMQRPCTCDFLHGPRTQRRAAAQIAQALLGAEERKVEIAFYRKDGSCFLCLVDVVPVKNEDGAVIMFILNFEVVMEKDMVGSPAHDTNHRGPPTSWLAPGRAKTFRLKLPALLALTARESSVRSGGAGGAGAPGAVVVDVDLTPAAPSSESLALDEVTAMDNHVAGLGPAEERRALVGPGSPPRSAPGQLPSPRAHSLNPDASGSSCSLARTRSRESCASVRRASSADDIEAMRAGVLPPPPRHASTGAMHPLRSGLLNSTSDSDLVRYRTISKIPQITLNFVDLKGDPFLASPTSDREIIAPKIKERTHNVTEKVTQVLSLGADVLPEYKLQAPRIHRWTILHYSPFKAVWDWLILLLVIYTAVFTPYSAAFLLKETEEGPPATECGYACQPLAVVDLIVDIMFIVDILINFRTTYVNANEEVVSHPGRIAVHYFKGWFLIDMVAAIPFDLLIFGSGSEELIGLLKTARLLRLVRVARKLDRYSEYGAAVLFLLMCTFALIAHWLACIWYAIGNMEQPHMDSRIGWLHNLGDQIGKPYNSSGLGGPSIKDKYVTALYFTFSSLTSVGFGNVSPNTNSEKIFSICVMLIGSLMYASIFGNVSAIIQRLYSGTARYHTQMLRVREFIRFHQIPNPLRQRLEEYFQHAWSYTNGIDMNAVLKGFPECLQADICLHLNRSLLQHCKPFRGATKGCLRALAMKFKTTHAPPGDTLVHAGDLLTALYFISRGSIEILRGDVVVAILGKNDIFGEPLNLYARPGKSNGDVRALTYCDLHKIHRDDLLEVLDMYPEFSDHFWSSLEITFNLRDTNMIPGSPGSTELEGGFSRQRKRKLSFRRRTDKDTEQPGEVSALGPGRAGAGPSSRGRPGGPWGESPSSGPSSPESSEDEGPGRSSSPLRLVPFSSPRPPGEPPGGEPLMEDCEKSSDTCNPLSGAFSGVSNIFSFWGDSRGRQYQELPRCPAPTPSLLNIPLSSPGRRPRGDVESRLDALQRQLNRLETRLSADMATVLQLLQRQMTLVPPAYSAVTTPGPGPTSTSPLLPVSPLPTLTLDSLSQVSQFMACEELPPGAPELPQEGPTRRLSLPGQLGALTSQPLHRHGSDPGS", "experiment": "primary screen, population patch clamp on CHO cells stably expressing hERG", "units": {"hERG current change (%, negative = inhibition) at 1uM": "%"}, "values": [
      {"compound": "COc1ccc(-n2nnnc2/C=C\\Nc2ccc(C)cc2)cc1", "hERG current change (%, negative = inhibition) at 1uM": 13.7},
      {"compound": "COc1ccccc1C(=O)NCC(=O)NCCSc1ccc(Br)cc1", "hERG current change (%, negative = inhibition) at 1uM": 16.7},
      {"compound": "CCCc1cc(=O)[nH]c(SCC(=O)N(C)CC(=O)Nc2ccc(F)cc2)n1", "hERG current change (%, negative = inhibition) at 1uM": 16.2},
      {"compound": "O=C(CCCc1nc(-c2ccccc2)no1)NCc1cccnc1", "hERG current change (%, negative = inhibition) at 1uM": 2.98},
      {"compound": "COc1cc2ccnc(Cc3cccc(OC)c3OC)c2cc1OC.Cl", "hERG current change (%, negative = inhibition) at 1uM": 9.51},
      {"compound": "CCOC(=O)C1=C(O)/C(=C\\c2ccc(O)c(OCC)c2)N=C1C", "hERG current change (%, negative = inhibition) at 1uM": 8},
      {"compound": "CCCCc1cc(=O)oc2cc(OCC(=O)N3CCc4ccccc43)ccc12", "hERG current change (%, negative = inhibition) at 1uM": 11},
      {"compound": "Br.N#CCC(=O)NN1Cc2ccccc2C1=N", "hERG current change (%, negative = inhibition) at 1uM": 6.7},
      {"compound": "COc1cc2c(cc1NC(=O)CCC(=O)O)oc1ccccc12", "hERG current change (%, negative = inhibition) at 1uM": 13},
      {"compound": "Cc1ccc(NC(=O)/C(=C\\c2cccc([N+](=O)[O-])c2)NC(=O)c2cccs2)cc1", "hERG current change (%, negative = inhibition) at 1uM": 4.59},
      {"compound": "COc1ccc(NC(=O)NN2CCN(C)CC2)cc1", "hERG current change (%, negative = inhibition) at 1uM": 16.9},
      {"compound": "COc1ccc(CNCCc2ccc(Cl)cc2Cl)cc1", "hERG current change (%, negative = inhibition) at 1uM": 13.2},
      {"compound": "C/C(Cn1cnc([N+](=O)[O-])n1)=N/NC(=O)COc1c(Cl)cc(Cl)cc1Cl", "hERG current change (%, negative = inhibition) at 1uM": -6.47},
      {"compound": "CCC(=O)NC(=S)Nc1ccc(Cl)cn1", "hERG current change (%, negative = inhibition) at 1uM": 11.3},
      {"compound": "CC(C)(C)c1ccc(C(=O)Nc2ccc(S(N)(=O)=O)cc2)cc1", "hERG current change (%, negative = inhibition) at 1uM": 13.9},
      {"compound": "COc1ccc(C(=O)N(CC2CCCO2)C(C(=O)NC2CCCC2)c2ccc(Cl)cc2)cc1OC", "note": "(stereo not drawn)", "hERG current change (%, negative = inhibition) at 1uM": 4.89},
      {"compound": "COc1cc(/C=C2/S/C(=N/S(=O)(=O)c3ccccc3)NC2=O)c([N+](=O)[O-])cc1OC", "hERG current change (%, negative = inhibition) at 1uM": 11.6},
      {"compound": "CCOc1ccc(C(=O)NCC(=O)OC(C)C(=O)NCc2ccco2)cc1OCC", "note": "(stereo not drawn)", "hERG current change (%, negative = inhibition) at 1uM": 6.82},
      {"compound": "O=C(COc1ccc(Cl)cc1)Nc1cc(S(=O)(=O)N2CCCCC2)ccc1N1CCCCC1", "hERG current change (%, negative = inhibition) at 1uM": 13.9},
      {"compound": "COCCOC(=O)C1=C(C)NC(=O)NC1c1ccc(Cl)cc1", "note": "(stereo not drawn)", "hERG current change (%, negative = inhibition) at 1uM": 2.6},
      {"compound": "Cc1c(Cl)c([N+](=O)[O-])nn1CC(=O)Nc1c(C)n(C)n(-c2ccccc2)c1=O", "hERG current change (%, negative = inhibition) at 1uM": 4.72},
      {"compound": "CN(C(=O)OC(C)(C)C)c1ccc(-c2nc3ccccc3s2)cc1", "hERG current change (%, negative = inhibition) at 1uM": 28.1},
      {"compound": "COc1cccc(NC(=O)Nc2ccc(Br)cn2)c1", "hERG current change (%, negative = inhibition) at 1uM": 12.5},
      {"compound": "CN1CCN(c2ccc([N+](=O)[O-])cc2C(=O)N2CCCCC2)CC1", "hERG current change (%, negative = inhibition) at 1uM": 0.394},
      {"compound": "Cc1cc(C)c(NC(=O)CN2CCC(NC(=O)NC3CCCCC3)CC2)c(C)c1", "hERG current change (%, negative = inhibition) at 1uM": 8.8},
      {"compound": "Cc1cc(C(=O)CCC(=O)N2CCN(c3ccccc3)CC2)c(C)s1", "hERG current change (%, negative = inhibition) at 1uM": 5.33},
      {"compound": "COc1ccc(OC)c(S(=O)(=O)n2cnc3ccccc32)c1", "hERG current change (%, negative = inhibition) at 1uM": 8.57},
      {"compound": "CCC(=O)Oc1ccc(C/C(=N\\O)c2ccc(O)cc2O)o1", "hERG current change (%, negative = inhibition) at 1uM": 4.36},
      {"compound": "COc1cc2ncnc(NCc3ccc(C)cc3)c2cc1OC", "hERG current change (%, negative = inhibition) at 1uM": 10.3},
      {"compound": "O=C(NCCS(=O)(=O)N1CCN(c2cccc(Cl)c2)CC1)C1CCCC1", "hERG current change (%, negative = inhibition) at 1uM": -23.9},
      {"compound": "COc1cc([N+](=O)[O-])cc2sc(NC(=O)c3c(F)cccc3F)nc12", "hERG current change (%, negative = inhibition) at 1uM": 0.451},
      {"compound": "CCc1ccc(CNC(=O)C(=O)NCC2CCCO2)cc1", "note": "(stereo not drawn)", "hERG current change (%, negative = inhibition) at 1uM": 9.88},
      {"compound": "COC(=O)CSc1ncnc2c1cnn2-c1ccc(C)cc1C", "hERG current change (%, negative = inhibition) at 1uM": 4.7},
      {"compound": "COc1ccc(CC(=O)Nc2ccc3c(c2)CCC3)cc1OC", "hERG current change (%, negative = inhibition) at 1uM": -4.34},
      {"compound": "O=C(c1cc(-c2cccs2)on1)N1CCCc2ccccc21", "hERG current change (%, negative = inhibition) at 1uM": 11.5},
      {"compound": "COc1ccc(S(=O)(=O)NCC(=O)N(CC(=O)NCc2ccco2)C2CCCC2)cc1", "hERG current change (%, negative = inhibition) at 1uM": 12.2},
      {"compound": "COc1ccc(C2CC(=O)Nc3cc(OC)c(OC)cc32)cc1Br", "note": "(stereo not drawn)", "hERG current change (%, negative = inhibition) at 1uM": 12.9},
      {"compound": "Cc1cccc(C)c1OC(=O)Cc1ccccc1[N+](=O)[O-]", "hERG current change (%, negative = inhibition) at 1uM": 3.17},
      {"compound": "CCOc1ccc(NC(=S)N(CCCN2CCOCC2)Cc2cn(C)c3ccccc23)cc1", "hERG current change (%, negative = inhibition) at 1uM": 7},
      {"compound": "Cc1ccc(NC(=O)CCSc2nc(C)cc(C)n2)cc1", "hERG current change (%, negative = inhibition) at 1uM": -0.237},
      {"compound": "COc1cccc(-c2sc3ccc(OC)cc3c2-c2ccc(C(N)=O)cc2)c1", "hERG current change (%, negative = inhibition) at 1uM": 19},
      {"compound": "CCSc1nnc(Cn2c(=O)sc3ccccc32)n1-c1ccc(OC)cc1", "hERG current change (%, negative = inhibition) at 1uM": 3.69},
      {"compound": "CN1/C(=C\\C=C2/SC(=S)NC2=O)C(C)(C)c2ccccc21", "hERG current change (%, negative = inhibition) at 1uM": 9.8},
      {"compound": "CCC1CCCCN1C(=O)COc1ccc2c3c(c(=O)oc2c1)CCC3", "note": "(stereo not drawn)", "hERG current change (%, negative = inhibition) at 1uM": 5.08},
      {"compound": "CCC1CCCCN1CCCNC(=O)c1ccc(N2CCCC2=O)cc1", "note": "(stereo not drawn)", "hERG current change (%, negative = inhibition) at 1uM": 14.4},
      {"compound": "Cc1cccc(-c2n[nH]c(=S)n2/N=C/c2ccco2)c1", "hERG current change (%, negative = inhibition) at 1uM": 13.3},
      {"compound": "CCOC(=O)c1nn(-c2ccccc2F)c2nc(-c3ccco3)c(C#N)c(=O)n12", "hERG current change (%, negative = inhibition) at 1uM": 16.7},
      {"compound": "O=c1c2cccc(Cl)c2nc2n1Cc1ccccc1-2", "hERG current change (%, negative = inhibition) at 1uM": 12.7},
      {"compound": "Cc1cc(C)c(C(=O)COC(=O)c2c(C)noc2C)cc1C", "hERG current change (%, negative = inhibition) at 1uM": -4.15},
      {"compound": "CCOc1ccc(S(=O)(=O)NCc2ccccc2Cl)cc1C(N)=O", "hERG current change (%, negative = inhibition) at 1uM": 18.2},
      {"compound": "CC1CCN(S(=O)(=O)N2CCC(C(=O)O)CC2)CC1", "hERG current change (%, negative = inhibition) at 1uM": 9.96},
      {"compound": "CCN(CC)C(=S)SCC(=O)c1ccccc1", "hERG current change (%, negative = inhibition) at 1uM": 8.8},
      {"compound": "Cc1cccc(NS(=O)(=O)c2cc3c4c(c2)CCN4C(=O)CC3)c1C", "hERG current change (%, negative = inhibition) at 1uM": 8.41},
      {"compound": "C/C(=N\\NC(=O)Cn1ccc(C(F)(F)F)n1)c1ccc(N2CCOCC2)cc1", "hERG current change (%, negative = inhibition) at 1uM": 13.9},
      {"compound": "C=CCn1c(O)c2ccc(C(=O)N=NC(=O)COc3ccccc3F)cc2c1O", "hERG current change (%, negative = inhibition) at 1uM": 15.7},
      {"compound": "CC(OC(=O)CC(NC(=O)c1ccccc1Cl)c1ccccc1)C(=O)Nc1cccc(Cl)c1Cl", "note": "(stereo not drawn)", "hERG current change (%, negative = inhibition) at 1uM": -0.371},
      {"compound": "CCNc1ccc(S(=O)(=O)C(F)(F)F)cc1NC(=O)C12CCC(CC1)C2", "hERG current change (%, negative = inhibition) at 1uM": 13.9}
    ]}
  ]
}
